Here are results for 45 molecules from publication PMC4336329 (PLoS ONE, 2015).

Molecules are shown by their SMILES. Hit rate of the full screen: of about 310,000 compounds, about 2,200 (0.71%) showed an effect of 50% or more. Effects have a minus sign here. Some of the results follow.

human ether-à-go-go-related gene (hERG) potassium channel, sequence (Q12809 whole entry, looked up): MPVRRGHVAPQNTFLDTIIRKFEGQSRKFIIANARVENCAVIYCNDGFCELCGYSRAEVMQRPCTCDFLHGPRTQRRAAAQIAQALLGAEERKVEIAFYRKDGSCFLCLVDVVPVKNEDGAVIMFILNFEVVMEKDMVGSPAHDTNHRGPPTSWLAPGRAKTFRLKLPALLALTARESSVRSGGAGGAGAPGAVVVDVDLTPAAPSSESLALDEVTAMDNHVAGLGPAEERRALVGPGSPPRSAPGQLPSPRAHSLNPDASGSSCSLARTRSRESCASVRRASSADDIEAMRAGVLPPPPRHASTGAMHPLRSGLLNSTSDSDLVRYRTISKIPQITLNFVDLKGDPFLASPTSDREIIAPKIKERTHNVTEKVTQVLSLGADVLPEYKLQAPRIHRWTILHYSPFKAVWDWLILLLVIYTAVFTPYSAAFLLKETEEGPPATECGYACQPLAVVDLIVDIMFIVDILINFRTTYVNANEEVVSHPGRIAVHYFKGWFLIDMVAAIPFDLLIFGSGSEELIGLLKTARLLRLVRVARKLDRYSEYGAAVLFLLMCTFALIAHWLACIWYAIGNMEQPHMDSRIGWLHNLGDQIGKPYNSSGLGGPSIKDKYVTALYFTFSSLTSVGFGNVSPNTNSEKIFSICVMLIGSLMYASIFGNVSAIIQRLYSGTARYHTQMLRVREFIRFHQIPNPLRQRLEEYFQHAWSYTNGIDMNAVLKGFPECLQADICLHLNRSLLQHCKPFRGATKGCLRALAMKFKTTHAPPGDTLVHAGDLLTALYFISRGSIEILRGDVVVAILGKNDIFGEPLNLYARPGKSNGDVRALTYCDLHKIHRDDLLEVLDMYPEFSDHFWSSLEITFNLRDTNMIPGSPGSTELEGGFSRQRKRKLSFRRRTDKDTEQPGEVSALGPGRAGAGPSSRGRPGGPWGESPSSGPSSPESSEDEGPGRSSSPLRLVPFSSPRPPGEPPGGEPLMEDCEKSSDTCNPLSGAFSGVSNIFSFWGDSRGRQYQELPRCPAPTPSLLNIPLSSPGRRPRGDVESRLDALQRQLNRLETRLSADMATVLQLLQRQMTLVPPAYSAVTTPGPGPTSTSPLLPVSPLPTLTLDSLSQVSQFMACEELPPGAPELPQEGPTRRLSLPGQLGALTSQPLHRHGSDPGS

This assay has as its target human ether-à-go-go-related gene (hERG) potassium channel (human, UniProt Q12809). Nature of the assay: primary screen, population patch clamp on CHO cells stably expressing hERG.
On to `COC(=O)CNC(=O)C(NC(=O)c1ccc(Cl)cc1)C(C)C` (stereo not drawn), for which the “hERG current change (%, negative = inhibition) at 1uM” value turned out to be 17.9%.

For `COc1ccccc1OCCNC(=O)c1cc(F)c(F)cc1Cl`, the “hERG current change (%, negative = inhibition) at 1uM” value stood at 3.22%.

On to `CCCCn1c(NC(=O)c2ccc(Br)o2)c(C(=O)OCC)c2nc3ccccc3nc21`, for which the “hERG current change (%, negative = inhibition) at 1uM” value is listed as -17.9%.

For `CCOC(=O)c1noc(C)c1C(=O)Nc1nccs1`, the “hERG current change (%, negative = inhibition) at 1uM” value was found to be 7.45%.

For the molecule `Cc1cc(=O)[nH]c(SCC(=O)N2C(C)CCCC2C)n1` (stereo not drawn), the “hERG current change (%, negative = inhibition) at 1uM” value was 9.75%.

Consider `Cc1cccc(C(=O)NNC(=O)c2cccc([N+](=O)[O-])c2)c1`, for which the “hERG current change (%, negative = inhibition) at 1uM” value stood at 11.6%.

For the molecule `COc1ccc(-c2n[nH]c(=S)n2-c2ccc3c(c2)OCCO3)cc1OC`, the “hERG current change (%, negative = inhibition) at 1uM” value was -0.833%.

As for `CC(C)CN(CC(C)C)C(=O)Nc1cccc([N+](=O)[O-])c1`, the “hERG current change (%, negative = inhibition) at 1uM” value is 16.3%.

For `Cc1nc2oc3ccccc3c(=O)c2cc1C(=O)O`, the “hERG current change (%, negative = inhibition) at 1uM” value is given as 19.4%.

For `O=C(O)c1cccc(N2C(=O)Nc3ccccc3N2O)c1`, the “hERG current change (%, negative = inhibition) at 1uM” value is given as 12%.

For the molecule `CCC1Oc2ccc(Cl)cc2N(CC(=O)O)C1=O` (stereo not drawn), the “hERG current change (%, negative = inhibition) at 1uM” value was -6.9%.

As to `Cc1cccc(N/C=C/C(=O)c2ccc(Cl)cc2)c1`, the “hERG current change (%, negative = inhibition) at 1uM” value is 13.1%.

With `Cc1nnc(SCC(=O)Nc2sccc2C#N)n1Cc1ccccc1`, the “hERG current change (%, negative = inhibition) at 1uM” value is recorded as 1.06%.

As to `COc1cccc(C(c2c(NC(=O)c3ccccc3)sc(C)c2C)N2CCN(C)CC2)c1` (stereo not drawn), the “hERG current change (%, negative = inhibition) at 1uM” value stood at 13.8%.

For `CCC(=O)Nc1ccccc1C(=O)OCC(=O)c1ccc2ccccc2c1`, the “hERG current change (%, negative = inhibition) at 1uM” value is given as 11.4%.

For the molecule `CN(C)S(=O)(=O)c1cccc(NC(=O)CCCC2CCCCC2)c1`, the “hERG current change (%, negative = inhibition) at 1uM” value amounted to 18.1%.

Consider `CS(=O)(=O)N1CCC(C(=O)N2CCN(c3ccccc3)CC2)CC1`, for which the “hERG current change (%, negative = inhibition) at 1uM” value amounted to 13.4%.

Regarding `O=C1c2ccccc2C(=O)N1SC1CCCCC1`, the “hERG current change (%, negative = inhibition) at 1uM” value was determined as 12%.

Take `O=C1Cn2c(nc3ccccc32)-c2ccccc2N1`: the “hERG current change (%, negative = inhibition) at 1uM” value stood at 3.55%.

For the molecule `COc1ccc(-c2cc(C(=O)NC(C)c3ccccn3)c3ccccc3n2)cc1OC` (stereo not drawn), the “hERG current change (%, negative = inhibition) at 1uM” value turned out to be 5.53%.

In the case of `CN1CCN(C(=O)C2=C[C@@H](c3ccc4c(c3)OCO4)C[C@@H](OCc3ccc(CO)cc3)O2)CC1`, the “hERG current change (%, negative = inhibition) at 1uM” value worked out at 1.17%.

In the case of `O=C(OC1CCS(=O)(=O)c2sccc21)c1ccccc1` (stereo not drawn), the “hERG current change (%, negative = inhibition) at 1uM” value came to 1.05%.

`Cc1cc(C)cc(NS(=O)(=O)c2ccc(NC(=O)C3CCCCC3C(=O)O)cc2)c1` (stereo not drawn): the “hERG current change (%, negative = inhibition) at 1uM” value is recorded as 7.48%.

As to `CCOc1ccc(NC(=O)N(C2CCCCC2)C2CCN(C(C)=O)CC2)cc1`, the “hERG current change (%, negative = inhibition) at 1uM” value is on record as -6.81%.

Consider `COc1cccc(-c2nc(NCc3cccnc3)c3ccccc3n2)c1O`, for which the “hERG current change (%, negative = inhibition) at 1uM” value stood at 14.2%.

`O=C(NC1CCN(Cc2ccccc2)CC1)c1ccccc1Cl`: the “hERG current change (%, negative = inhibition) at 1uM” value was 18.5%.

For `COC(=O)C1=C(c2cc3ccccc3o2)C[C@@H]2CC[C@H]1N2C(=O)N1CCC(O)CC1`, the “hERG current change (%, negative = inhibition) at 1uM” value turned out to be 11.1%.

Turning to `C=CCNC(=O)/C(C#N)=C/c1ccc(C(=O)O)cc1`, the “hERG current change (%, negative = inhibition) at 1uM” value was 11.2%.

As for `O=C(Nc1ccc(C(=O)NCC2CCN(Cc3ccccc3F)CC2)cc1)C1=CSCCO1`, the “hERG current change (%, negative = inhibition) at 1uM” value is reported as 16.9%.

In the case of `O=S(=O)(c1ccc(Oc2ccc(-c3nnco3)cc2)nc1)N1CCC(Cc2ccccc2)CC1`, the “hERG current change (%, negative = inhibition) at 1uM” value is listed as 2.1%.

As for `O=C(Cn1cnc2cc([N+](=O)[O-])ccc2c1=O)Nc1ccccc1Cl`, the “hERG current change (%, negative = inhibition) at 1uM” value came out at 6.18%.

As to `O=C1c2ccccc2C(=O)N1C1CCCCC1`, the “hERG current change (%, negative = inhibition) at 1uM” value was 29.6%.

Turning to `Cn1ccnc1SCc1ccc(Cl)cc1Cl`, the “hERG current change (%, negative = inhibition) at 1uM” value was 7.53%.

For the molecule `CCOC(=O)c1ccc(S(=O)(=O)N2CCN(C(=O)c3cc(=O)c4ccccc4o3)CC2)cc1`, the “hERG current change (%, negative = inhibition) at 1uM” value stood at 14.8%.

In the case of `CCN(CC)C(=O)Cn1c(=O)c2ccccc2n2c(=S)sc(-c3cccc(C)c3)c12`, the “hERG current change (%, negative = inhibition) at 1uM” value worked out at 17.1%.

`O=C1NC(=S)N/C1=C\c1ccc(Oc2ccc(C(F)(F)F)cc2[N+](=O)[O-])c(Cl)c1`: the “hERG current change (%, negative = inhibition) at 1uM” value is on record as 9.8%.

On to `CCN(CC)S(=O)(=O)c1ccc(S(=O)(=O)N2CCCC2)cc1`, for which the “hERG current change (%, negative = inhibition) at 1uM” value came to 11%.

With `O=C(O)c1ccc(S(=O)(=O)c2ccc3c(c2)C(=O)N(c2ccc(O)cc2)C3=O)cc1`, the “hERG current change (%, negative = inhibition) at 1uM” value is reported as 6.95%.

On to `O=C(CN1CCOCC1)N/N=C/c1c(O)ccc2ccccc12`, for which the “hERG current change (%, negative = inhibition) at 1uM” value is on record as 11.7%.

`CC(=O)Nc1ccc(NC(=O)C(C)OC(=O)C2CCN(S(=O)(=O)c3cccs3)CC2)cc1` (stereo not drawn): the “hERG current change (%, negative = inhibition) at 1uM” value is listed as 6.39%.

Regarding `CCc1ccc(NC(=O)c2c(C(=O)Nc3ccccc3)sc3nc(C)cc(=O)n23)cc1`, the “hERG current change (%, negative = inhibition) at 1uM” value is listed as 10.2%.

As for `COc1cccc(C2NC(=O)c3ccccc3O2)c1OCc1ccccc1F` (stereo not drawn), the “hERG current change (%, negative = inhibition) at 1uM” value is listed as 0.42%.

As for `O=C1C2C3C=CC(C3)C2C(=O)N1c1ccncc1` (stereo not drawn), the “hERG current change (%, negative = inhibition) at 1uM” value is 8.16%.

For the molecule `CC(=O)Nc1ccc(-c2cc(-c3ccccc3)nc(-c3ccccc3)n2)cc1`, the “hERG current change (%, negative = inhibition) at 1uM” value stood at 16.6%.

For the molecule `CNC(=O)OC(C)CNS(=O)(=O)c1ccc(C)cc1` (stereo not drawn), the “hERG current change (%, negative = inhibition) at 1uM” value was determined as 6.78%.
